Measured values published in publication PMC3618186.
These are yes or no findings as the source states them, for the method shown.

Amino acid sequences for entries named in this document (tags omitted). Residues count along the entry.
UniProt P28023, residues 381-530: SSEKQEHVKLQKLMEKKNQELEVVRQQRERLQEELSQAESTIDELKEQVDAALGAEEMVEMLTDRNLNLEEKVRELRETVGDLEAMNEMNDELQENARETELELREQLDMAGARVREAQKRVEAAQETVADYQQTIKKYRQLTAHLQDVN

Target: dynactin p150^Glued coiled-coil 1B (CC1B), residues 381–530 (R. norvegicus) (UniProt P28023)
Test: native gel or EMSA; native PAGE; purified proteins incubated at 25°C for five minutes in equimolar or two fold molar excess; 12% gels with a stacking gel at pH 7.4 or 8–25% gradient gels; both purified

Binder | binding
Pac11 1–86 L4A,K5A,Q6A (domain or fragment, UniProt P40960 1-86) MERAAALEEKRRQLKELRERRKQASLFPGSETMGHHPTEVHAKATMVSVSVQTDMEEGSKIQEPQSAYLRRKEVITYDKGIQTDQI | no binding
Pac11 1–86 Q6A,L7A,E8A (domain or fragment, UniProt P40960 1-86) MERLKAAAEKRRQLKELRERRKQASLFPGSETMGHHPTEVHAKATMVSVSVQTDMEEGSKIQEPQSAYLRRKEVITYDKGIQTDQI | no binding
Pac11 1–86 E9A,K10A,R11A (domain or fragment, UniProt P40960 1-86) MERLKQLEAAARQLKELRERRKQASLFPGSETMGHHPTEVHAKATMVSVSVQTDMEEGSKIQEPQSAYLRRKEVITYDKGIQTDQI | no binding
Pac11 1–86 L17A,R18A (domain or fragment, UniProt P40960 1-86) MERLKQLEEKRRQLKEAAERRKQASLFPGSETMGHHPTEVHAKATMVSVSVQTDMEEGSKIQEPQSAYLRRKEVITYDKGIQTDQI | no binding
Pac11 1–86 E19A,R20A,R21A (domain or fragment, UniProt P40960 1-86) MERLKQLEEKRRQLKELRAAAKQASLFPGSETMGHHPTEVHAKATMVSVSVQTDMEEGSKIQEPQSAYLRRKEVITYDKGIQTDQI | no binding
Pac11 1–86 R12A,Q13A,L14A (domain or fragment, UniProt P40960 1-86) MERLKQLEEKRAAAKELRERRKQASLFPGSETMGHHPTEVHAKATMVSVSVQTDMEEGSKIQEPQSAYLRRKEVITYDKGIQTDQI | no binding
